# The supplement of paper PMC10502849
# This is one part of the list. Repeats are few or missing, and single values can be far off.
# Key:
# [1] = test system: H9 teratoma-derived LAM model cells, TSC2-/-; assay: percent SyTOX+ dead cells; higher = more cytotoxic; settings: 5 µM, treatment time 72 h, culture: 3D hyaluronic acid hydrogel
# [2] = test system: H9 teratoma-derived LAM model cells, WT; assay: percent SyTOX+ dead cells; higher = more cytotoxic; settings: 5 µM, treatment time 72 h, culture: 3D hyaluronic acid hydrogel, genotype: WT
# [3] = test system: H9 teratoma-derived LAM model cells, TSC2-/-; assay: percent of cells invaded past median invasion distance of vehicle control; LAM is lymphangioleiomyomatosis; the cells come from teratomas of the human stem cell line H9; higher = more invasion; extreme values may be limits of the assay; settings: 5 µM, treatment time 72 h, culture: 3D hyaluronic acid hydrogel
# [4] = test system: H9 teratoma-derived LAM model cells, WT; assay: as above; settings: 5 µM, treatment time 72 h, culture: 3D hyaluronic acid hydrogel, genotype: WT
# 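Throughout, for percent SyTOX+ dead cells: cells seeded atop a hyaluronic acid gel crosslinked via MMP-cleavable peptides, containing vitronectin peptides and methylcellulose, imaged live by high-content microscopy with automated analysis, one technical replicate per compound.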
# 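Throughout, for percent of cells invaded past median invasion distance of vehicle control: live cells imaged by high content microscopy and scored with in-house automated image analysis, one technical replicate per compound in each genotype and rapamycin condition.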
Compound,percent SyTOX+ dead cells ([1]; rapamycin 0 nM),percent SyTOX+ dead cells ([1]; rapamycin 20 nM),percent SyTOX+ dead cells ([2]; rapamycin 0 nM),percent SyTOX+ dead cells ([2]; rapamycin 20 nM),percent ([3]; rapamycin 0 nM),percent ([3]; rapamycin 20 nM),percent ([4]; rapamycin 0 nM),percent ([4]; rapamycin 20 nM)
Cc1ncc(-c2ccnc(Nc3ccc(S(C)(=O)=O)cc3)n2)n1C(C)C,43.1%,32.2%,31.3%,36.3%,3.19%,12.4%,1.2%,1.27%
"Cc1[nH]c2ccccc2c1CCNCc1ccc(/C=C/C(=O)NO)cc1 [LBH-589, Panobinostat, NVP-LBH589, LBH589]",25.1%,21.6%,24.2%,3.99%,2.95%,4.1%,0%,3.68%
CC(=O)Nc1nc(C)c(-c2ccc(Cl)c(S(=O)(=O)NCCO)c2)s1,22.6%,21.7%,25.8%,18.7%,22.6%,30.1%,5.73%,33.6%
Nc1nccc(-c2c(-c3ccc(F)cc3)ncn2C2CCCCC2)n1,13.6%,8.16%,22.9%,17.2%,15.4%,6.8%,5.08%,16.6%
NC1(c2ccc(-c3nc4ccn5c(=O)[nH]nc5c4cc3-c3ccccc3)cc2)CCC1,6.67%,7.75%,13.9%,15.8%,22.2%,40.7%,36.9%,50.4%
Oc1nc(-c2ccc(C(F)(F)F)cc2)nc2c1CSCC2,10.1%,4.93%,2.9%,2.82%,42.6%,23.1%,61.7%,54.1%
COc1cc2c(cc1-c1c(C)noc1C)ncc1[nH]c(=O)n([C@H](C)c3ccccn3)c12,14.1%,13.2%,21%,19.3%,77.1%,74.1%,67.2%,58.1%
Cc1ccc(NC(=O)c2ccc(CN3CCN(C)CC3)cc2)cc1Nc1nccc(-c2cccnc2)n1,12.4%,15.5%,13.6%,13.5%,45.7%,24.9%,29%,19.6%
O=C(CCCCCCC(=O)Nc1cccnc1)NO,40.5%,46%,37.3%,47.7%,6.75%,1.39%,4.11%,7.17%
Nc1[nH]nc2nc3ccccc3nc12,11.9%,16.1%,7.02%,9.34%,16.4%,16.9%,22.8%,17.9%
O=C1NC(=O)c2c1c(-c1ccccc1)cc1[nH]c3ccc(O)cc3c21,48.7%,18.2%,29.2%,22.8%,1.32%,9.09%,0%,0%
C[C@@H](c1ncncc1F)[C@](O)(Cn1cncn1)c1ccc(F)cc1F,11.3%,6%,5.98%,5%,56.6%,30%,69%,41.1%
"O=C(/C=C/c1ccc(CN(CCO)CCc2c[nH]c3ccccc23)cc1)NO [LAQ824, LAQ-824, NVP-LAQ-824, Dacinostat]",36.5%,23.6%,28.6%,5.7%,5.03%,2.95%,0%,0.26%
O=C(COc1cccc2c(=O)[nH]ccc12)c1ccccc1,2.19%,3%,4.47%,7.56%,54%,38.2%,45.4%,46.2%
Cc1cc(C(=O)Nc2cc(Nc3ccc4c(/C=C/c5ccccn5)n[nH]c4c3)ccc2F)n(C)n1,38.1%,15%,62.1%,50.4%,17.7%,14.5%,0%,7.83%
COc1cc(OC2CCN(C)CC2)ccc1Nc1ncc2c(n1)n(C1CCCC1)c(=O)n2C,13.1%,21.6%,28.3%,36.6%,61.6%,56.4%,34.5%,15.7%
Nc1nc(Nc2ccc(S(N)(=O)=O)cc2)nn1C(=O)c1c(F)cccc1F,12.4%,13.3%,10.9%,17.4%,7.59%,17.1%,0.91%,11.8%
"COc1cc2nccc(Oc3ccc(NC(=O)Nc4cc(C)on4)c(Cl)c3)c2cc1OC [AV951, KRN951, Tivozanib]",34.3%,35.9%,66.9%,60.8%,39.4%,12.5%,0.57%,1.18%
O=c1ncccn1[C@@H]1O[C@H](CO)[C@@H](O)[C@H]1O,14.8%,8.52%,13.4%,16.7%,64.1%,34.1%,38.3%,49.1%
O=C(Nc1cc(C(F)(F)F)cc(C(F)(F)F)c1)c1cc(Cl)ccc1O,66.2%,71.1%,64.1%,66.2%,0.35%,1.63%,1.28%,1.25%
N#C/C(=C\c1ccc(O)c(O)c1)C(=O)Nc1ccccc1,7.87%,21.8%,15.4%,15.6%,46.6%,7.41%,39.6%,14.4%
CNc1nccc(-c2cccnc2Oc2cc(C(=O)Nc3cccc(C(F)(F)F)c3)ccc2C)n1,8.76%,3.65%,32.2%,31.4%,16.6%,31.2%,12.2%,21.6%
O=C(c1ccc(Nc2nccc(-c3cc4ccccc4s3)n2)cc1)N1CCC(N2CCCC2)CC1,38.4%,37.6%,39.8%,39.3%,2.91%,3.82%,9.41%,20.2%

Compound,percent SyTOX+ dead cells ([1]; rapamycin 0 nM),percent SyTOX+ dead cells ([1]; rapamycin 20 nM),percent SyTOX+ dead cells ([2]; rapamycin 0 nM),percent SyTOX+ dead cells ([2]; rapamycin 20 nM),percent ([3]; rapamycin 0 nM),percent ([3]; rapamycin 20 nM),percent ([4]; rapamycin 0 nM),percent ([4]; rapamycin 20 nM)
COc1cc(Nc2ncc3c(n2)-c2ccc(Cl)cc2C(c2c(F)cccc2OC)=NC3)ccc1C(=O)O,17.7%,15.2%,51.4%,61.4%,49.8%,42%,18.5%,9.09%
"Cc1ccc(-n2nc(C(C)(C)C)cc2NC(=O)Nc2ccc(OCCN3CCOCC3)c3ccccc23)cc1 [BIRB 796, Doramapimod]",2.78%,0.35%,12.5%,2.49%,59.7%,100%,62.5%,68.9%
O=S(=O)(Nc1ccccn1)c1ccc(N=Cc2c(O)[nH]c3ccc4ncsc4c23)cc1,27.5%,26.8%,35.3%,23.5%,2.5%,0%,0%,0%
"CC(C)[C@H](CO)Nc1nc(Nc2ccc(C(=O)O)c(Cl)c2)c2ncn(C(C)C)c2n1 [Purvalanol B, NG 95]",4.49%,10.9%,15%,7.77%,20%,37.6%,50%,38.4%
Cc1ccc(-c2csc3ncnc(SCCC(=O)O)c23)cc1,3.7%,1.07%,10.5%,9.03%,64.5%,50.8%,47.7%,25%
NC(=O)c1ccc(N(C(N)=O)c2c(F)cccc2F)nc1-c1ccc(F)cc1F,10.3%,12.1%,28.2%,16.2%,34.5%,74.6%,23%,27.8%
O=C1c2ccc(O)c(O)c2C(=O)c2c(O)ccc(O)c21 [Quinalizarin],5.88%,4.98%,9.95%,10.9%,62%,92.1%,75.3%,87%
O=S(=O)(O)c1ccc2cc(N=Nc3cc(S(=O)(=O)O)c4cccnc4c3O)ccc2c1,9.72%,9.79%,11.9%,8.33%,49.6%,42.1%,29.4%,49.6%
Cc1cc2c(s1)c1cnn(Cc3ccccc3F)c(=O)c1n2C,5.13%,16%,6.08%,11.4%,63%,31.5%,12.5%,33.5%
Nc1nc(NCCNc2ncc(-n3ccnc3)c(-c3ccc(Cl)cc3Cl)n2)ccc1[N+](=O)[O-],18.8%,28.5%,27.6%,25.9%,2.69%,26.9%,0.79%,7.48%
Cc1c[nH]c(/C=C2\C(=O)Nc3ccccc32)c1CCC(=O)O,19.4%,12.1%,19.6%,13.3%,18.9%,6.9%,23.3%,40.5%
O=C(NCCCNc1nc(Nc2cccc(NC(=O)N3CCCC3)c2)ncc1I)c1cccs1,21.8%,29.3%,23.6%,28.7%,0%,0.86%,2.78%,1.55%
CC(C)(C)c1cc(C(=O)O)c(NC(=O)Nc2ccc3[nH]ncc3c2)s1,2.02%,2.71%,8.52%,6.85%,86.2%,48%,60.6%,27.9%
O=C(Nc1cccc2cccnc12)c1ccc(N2C(=O)[C@@H]3[C@H](C2=O)[C@@H]2C=C[C@H]3C2)cc1 [IWR-1-endo],4.92%,5.2%,1.56%,0.48%,44.7%,35.4%,65.4%,68.7%
"CS(=O)(=O)N1CCN(Cc2cc3nc(-c4cccc5[nH]ncc45)nc(N4CCOCC4)c3s2)CC1 [GDC-0941 bismesylate, RG-7321, Pictilisib]",22.6%,27.3%,20.2%,39.8%,11.6%,14.1%,1.06%,2.15%
"Cn1cc(C(=O)Cc2ccccc2)cc1/C=C/C(=O)NO [APHA-8, APHA Compound 8]",13.8%,19.9%,20.4%,14.8%,58.5%,43.5%,29.2%,35.6%
Cc1ccc(NC(=O)c2cccc(N(C)C)c2)cc1NC(=O)c1ccc(O)cc1,16.3%,9.42%,35%,14%,47.4%,38.2%,4.12%,8%
CC(C)CCN1c2nc(Nc3cc(F)c(O)c(F)c3)ncc2N(C)C(=O)C1C (stereo not given),58%,53.1%,45.5%,40%,3.36%,7.48%,1.85%,3.17%
O=C(Nc1ncc(SCCN2CCCC2)s1)[C@]1(c2ccc(S(=O)(=O)C3CC3)cc2)C[C@H]1C1CCCCC1,12%,12.2%,16.5%,12.1%,69.4%,66.1%,55.3%,46%
O=C1NC(=O)/C(=C\c2ccc3nccnc3c2)S1,10.4%,4.86%,18.9%,20.7%,61.5%,30.6%,58.3%,23%
NCC(=O)Nc1ccc(-n2nc(C(F)(F)F)cc2-c2ccc3c(ccc4ccccc43)c2)cc1,14.5%,6.7%,60.1%,13.3%,62.9%,21.4%,5.34%,76%
CS(=O)(=O)c1ccc(-c2cnc(N)c(C(=O)Nc3ccccc3)n2)cc1,1.54%,8.55%,6.76%,5.64%,48.9%,39.5%,59.7%,12.4%
